B1: TPR 5TU (parent)
chain: GGAUCUUCUCGAUCUAACAAAAAAGACAAAUCUGCCACAAAGCUUGAGAGCAUCUUCGGAUGCAGAGGCGGCAGCCUUCGGUGGCGCGAUAGCGCCAACGUUCUCAACUAUGACACGCAAAACGCGUGCUCCGUUGAAUGGAGUUUAUCAUG

This sample is rich in variants without activity.

This data set covers variants of B1. Nature of the data set: polymerase ribozyme fitness, log enrichment relative to wild type (log ratio); higher = more active; in vitro selection for triplet polymerase activity. The procedure, abridged: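 For each subunit of a heterodimeric triplet polymerase ribozyme, a mutant library was built by PCR and transcribed, then taken through a single in vitro selection round in triplicate. Selection involved annealing to a biotinylated primer, the partner subunit and triplets, incubation frozen at −7 °C, gel excision of extended constructs, capture on streptavidin beads and RT-PCR. Genotypes were retained after Illumina sequencing of inputs and outputs only with ≥10 input reads and ≥1 read in each output. Fitness is defined as the logarithm of a genotype's enrichment relative to wild-type enrichment, using inverse-variance-weighted averages across replicates, with the logarithm taken to base 2.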
On to GGAUCUUCUCGAUCUAACAAAAAAGACAAAUCUGCCUCAAAGCUUGAGAGCGUCUUCGGAUGCAGAGGCGGCAGCAUUCGGUGGCGCGAUAGCGCUAACGUUCUCAACUAUGACACGCAAAACGCGUGCUGCGUUGAAUGGAGUUUAUCAUG [A37U A52G C76A C96U C131G], for which the “polymerase ribozyme fitness (log ratio)” value is at most -4.2.

In the case of GGAUCUUCUCGAUCUAACAAAAAAGACAAAUCUGCCUCAAAGCUUGAGAGCAUCUCCGGAUGCAGAGGUGGCAGCCUUCGGUGGCGCGAUAGCGCCAACGUUCUCAACUAUGACACGCAAAACGCGUGCUCCGUUGAAUGGAGUUUAUCAUG [A37U U56C C69U], the “polymerase ribozyme fitness (log ratio)” value was -2.76.

Consider GGAUCUUCUCGAUCUAACAAAAAAGACAAAUCUGCCUCAAAGCUUGAGAGCAUCUUCGGAUGCAGAGACGGCAGCCUUCGGUGGCGCGAUAUCGCCAACGAUAUCAACUAUGACACGCAAAACGCGUGCUCCGUGGAAUGGAGUUUAUCAUG [A37U G68A G92U U101A C103A U135G], for which the “polymerase ribozyme fitness (log ratio)” value was at most -4.2.

With GGAUCUUCUCGAUCUAACAAAAAAGACAAAUCUGCCUCAAAGCUUGAGAGCAUCUUCGGAUGCAGAGGCGGCAGCCUUCGGUGGGGCGAUAGCGCCAACGUUCUCAACUAUGACACGCAAAACGUGUGCUCCGUUGAAUGAAGUUUAUCAUG [A37U C85G C125U G141A], the “polymerase ribozyme fitness (log ratio)” value was at most -4.2.

As for GGAUCUUCUCGAUCUAACAAAAAAGACAAAUCUGCCAAAAAGCUUGAGCGCAUCUUCGGAUGCAGAGGCGGCAGCCUUCGUUGGCGCGAUAGCGCGAACGUUCUCAACUAUGACACGCAAAACGCGUGCUCCGUUGAAUGGAGUUUAUCAUG [C38A A49C G81U C96G], the “polymerase ribozyme fitness (log ratio)” value is at most -4.2.

For GGAUCUUCUCGAUCUAACAAAAAAGACAAAUCUGCCUCAAAGCUUGAGAGCAUCUUCGGAUGCAGAGGCGGCAGCCUUCGGUGGCGCGAUAGCGCUAACGUUCUCAACUAUGACACGCAAAACGCUUGCUCCGUUGAAUGGAGUUUAUCAUG [A37U C96U G126U], the “polymerase ribozyme fitness (log ratio)” value is -2.91.

GGAUCUUCUCGAUCUAACAAAAAAGACAAAUCUGCCAAAAAGCUUGAGGGCAUCUACGGGUGCAGAGGCGGCAGCCUUCGGUGGCGCGAGAGCGGCAACGUUCUCAACUAUCGCACUUAAAACGCGUGCUCCGUUGAAUGGAGUUUAUCAUG [C38A A49G U56A A60G U90G C95G G112C A113G G117U C118U]: the “polymerase ribozyme fitness (log ratio)” value was at most -4.2.

As for GGAUCUUCUCGAUCUAACAAAAAAGACAAAUCUGCCUCAAAGCUUGAGAGCAUCUUCGGAUGCAGAGGCGGCAGCCUUCGGUGGCGCGAUAGCCCCAACGUUCUCAACUAUGACACGCAAAACGCGUGCUCCGUUGCAUGCAGUUUAUCAUG [A37U G94C A137C G141C], the “polymerase ribozyme fitness (log ratio)” value is at most -4.2.

For GGAUCUUCUCGAUCUAACAAAAAAGACAAAUCUGCCUCAAAGCUUGAGAGCAUCUUCGGAUGCAGAGGCGGCAGCCUUCCCUGGCGCGAUAGCGCCAACGUACUCAACUUUGACACGGAUAACGCGUGCUCCUUUGAAUGGAGUUUAUCAUG [A37U G80C G81C U102A A110U C118G A120U G133U], the “polymerase ribozyme fitness (log ratio)” value was at most -4.2.

As for GGAUCUUCUCGAUCUAACAAAAAAGACAAAUCUGCCUCAAAGCUUGAGAGCAUCUUCGGAUGCAGAGGCGGCAGCCUUCGGUGGCGCGAUAGCGCCCACGUUCUCACUUAUGACACGCAAAACGCGUGCUCCGUUGAAUGGAGUUUAUCAUG [A37U A97C A107C C108U], the “polymerase ribozyme fitness (log ratio)” value is at most -4.2.

For the variant GGAUCUUCUCGAUCUAACAAAAAAGACAAAUCUGCCUCAAAGCUUGAGAGCAUCUUCGGAUGCAGAGGCGGCAGCCUUCGGUGGCGCGAUAGAGCCGAAGUUCUCAACUAUGACACGCAUAACGCGUGCUCCGUUGAAUGGAGUUUAUCAUG [A37U C93A A97G C99A A120U], the “polymerase ribozyme fitness (log ratio)” value is at most -4.2.

As for GGAUCUUCUCGAUCUAACAAAAAAGACAAAUCUGCCUCAAAGUUCGAGAGCAUCUUCGGAUGCAGAGGCGGCAGCGUUCGGUGGCGCGAUAGCGCAAACGUUCUCAACUAUGACACGCAAAACGGGUGCUCCCUUGAAUGGAAUUUAUCAUG [A37U C43U U45C C76G C96A C125G G133C G143A], the “polymerase ribozyme fitness (log ratio)” value is at most -4.2.

On to GGAUCUUCUCGAUCUAACAAAAAAGACAAAUCUGCCUCAAAGCUUGAGAGCAUCUUGGGAUGCAGAGGCGGCAGCCUUCGGUGGCGCAAUAGCGCCAAAGUUCUCAACUAUGACACGCAAAACGCGUGCUCCGUUGAAUGAAGUUUAUCAUG [A37U C57G G88A C99A G141A], for which the “polymerase ribozyme fitness (log ratio)” value was at most -4.2.

Regarding GGAUCUUCUCGAUCUAACAAAAAAGACAAAUCUGCCAAACAGCUUGAGAGCAUCUUCGGAUGCAGAGGCGGCAGCCUUCGGUGGCGCGAUAGGGUCAACGUUCUCACCUAUGACACGCAAAACGCGUGCUCCGUUGAAUGGAGGUAAUCAUG [C38A A40C C93G C95U A107C U144G U146A], the “polymerase ribozyme fitness (log ratio)” value was at most -4.2.

Take GGAUCUUCUCGAUCUAACAAAAAAGACAAAUCUGCCUCAAAGCUUGAGAGCAGCUUCGGAUACAGAGGCGGCAGCCUUCGGUGGCGCGAUAGCGUCAACGUUCUCAACUAUGACACGCAAAACGCGUGCUCCGUUGAAUGGAGUUUAUCAUG [A37U U53G G62A C95U]: the “polymerase ribozyme fitness (log ratio)” value is at most -4.2.

GGAUCUUCUCGAUCUAACAAAAAAGACAAAUCUGCCUCAAAGCUUGAGAGCAUCUUCGGAUGCAGAGGCGGCAGCCUUCGGUGGAGCGAUAGUGCCAACGUUCUCAACUAUGACACGCAAAACGCGUGCUCCGUUGAAUGCAGUUUCUCAUG [A37U C85A C93U G141C A147C]: the “polymerase ribozyme fitness (log ratio)” value was at most -4.2.

Regarding GGAUCUUCUCGAUCUAACAAAAAAGACAAAUCUGCCUCAAAGCUUGAGAACAUCUUCGGAUGCUGAGGCGGCAGCCUUCGGUGGCGCGAUAACGCCAACGUUCUCAACUAUGACACGCAAAACGCGUACUCCGUUGAAUGGAGUUUAUCAUG [A37U G50A A64U G92A G128A], the “polymerase ribozyme fitness (log ratio)” value is at most -4.2.

As to GGAUCUUCUCGAUCUAACAAAAAAGACAAAUCUGCCUCAAAGCUUGAGAGCAUCUUCGGAUGCAGAGGCGGCAGCCUUCGGUGGCGCGAUAGCGCCAACGUUCUCAACUAUGACCCGCCAAACGCGUGCUCCGUUGAAUGGAGUUUAUCAUG [A37U A115C A119C], the “polymerase ribozyme fitness (log ratio)” value is -2.95.

On to GGAUCUUCUCGAUCUAACAAAAAAGACAAAUCUGCCAAAAAGCUUGAGAGCGUCUUCGGAUGCAGAGGCGGCAGCCUUCGGUGGCGCGCUAGCGCAAACGUUCUCAACUAUGACCUGCAAAACGCGUGCACCGUUGAAUAGAGUUUAUCAGG [C38A A52G A89C C96A A115C C116U U130A G140A U151G], for which the “polymerase ribozyme fitness (log ratio)” value is at most -4.2.

(Values after the RNAGym collection of RNA variant scans (doi:10.1073/pnas.2313332121).)
